Reference: the supplement of paper PMC4967469

What was measured:
Assay in all cases: Viability of human cancer cell lines after 72 h of drug (GDSC screen)
FH535 = compound: Cc1cc([N+](=O)[O-])ccc1NS(=O)(=O)c1cc(Cl)ccc1Cl [FH535]; conditions: top dose 32 µM; top dose inferred
Protocol: (§1)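 Human cancer cell lines in 384-well plates, medium with 10% serum, drug for 72 h over a 256-fold dose range (nine 2-fold or five 4-fold steps up to the top dose). Adherent lines were fixed and stained with the nucleic acid dye Syto60, suspension lines read with resazurin; signal relative to control wells, capped at 0 and 100%. One two-parameter sigmoid per drug and line, fitted in a mixed model over all curves with the slope shared within a line.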

AT-7519 = compound: O=C(NC1CCNCC1)c1n[nH]cc1NC(=O)c1c(Cl)cccc1Cl [AT-7519]; conditions: top dose 10.24 µM; top dose inferred
Protocol: as §1

Sorafenib = compound: CNC(=O)c1cc(Oc2ccc(NC(=O)Nc3ccc(Cl)c(C(F)(F)F)c3)cc2)ccn1 [Sorafenib]; conditions: top dose 4 µM
Protocol: as §1

A-443654 = compound: Cc1n[nH]c2ccc(-c3cncc(OC[C@@H](N)Cc4c[nH]c5ccccc45)c3)cc12 [A-443654]; conditions: top dose 1.024 µM; top dose inferred
Protocol: as §1

XMD14-99 = compound: COc1cc(N2CCN(C)CC2)ccc1Nc1nc(N)c(C(=O)c2c(Cl)cccc2Cl)s1 [XMD14-99]; conditions: top dose 10.24 µM; top dose inferred
Protocol: as §1

Dasatinib = compound: Cc1nc(Nc2ncc(C(=O)Nc3c(C)cccc3Cl)s2)cc(N2CCN(CCO)CC2)n1 [Dasatinib]; conditions: top dose 1.28 µM
Protocol: as §1

Cell Line	AUC (FH535)	IC50 (FH535) [nM]	AUC (AT-7519)	IC50 (AT-7519) [nM]	AUC (Sorafenib)	IC50 (Sorafenib) [nM]	AUC (A-443654)	IC50 (A-443654) [nM]	AUC (XMD14-99)	IC50 (XMD14-99) [nM]	AUC (Dasatinib)	IC50 (Dasatinib) [nM]
DJM-1 (skin, adherent)	0.724	8610	0.736	3000	0.866	3530	0.781	420	0.988	> 10200	0.958	> 1280
DMS-114 (small cell lung carcinoma, adherent)	0.878	> 32000	0.848	9400	0.934	> 4000	0.895	> 1020	0.981	> 10200	0.974	> 1280
Daudi (Burkitt lymphoma, suspension)	0.42		0.772	3460	0.866	2830	0.683	193	0.961	> 10200	0.884	1080
EB2 (Burkitt lymphoma, suspension)	0.754	9840	0.232	117	0.975	> 4000	0.972	> 1020	0.933	> 10200	0.985	> 1280
ES1 (Ewing sarcoma, adherent)	0.8	15200	0.531	774	0.863	3370	0.762	361	0.916	> 10200	0.985	> 1280
ES3 (Ewing sarcoma, adherent)	0.703		0.484	577	0.922	> 4000	0.909	> 1020	0.912	> 10200	0.959	> 1280
ES6 (Ewing sarcoma, adherent)	0.529	2450	0.471	523	0.853	> 4000	0.568	102	0.972	> 10200	0.33	23.9
ES7 (Ewing sarcoma, adherent)	0.751	10800	0.37	277	0.955	> 4000	0.927	> 1020	0.849	7980	0.928	> 1280
ES8 (Ewing sarcoma, adherent)	0.621	4180	0.437	435	0.844	2560	0.608	124	0.895	> 10200	0.968	> 1280
ES-2 (ovary, adherent)	0.851	20100	0.59	1090	0.922	> 4000	0.927	> 1020	0.989	> 10200	0.963	> 1280
ETK-1 (biliary tract, adherent)	0.652	5630	0.57	1020	0.964	> 4000	0.596	122	0.973	> 10200	0.378	35.3
EW-3 (Ewing sarcoma, adherent)	0.856	31900	0.697	2490	0.934	> 4000	0.847	925	0.953	> 10200	0.984	> 1280
EW-13 (Ewing sarcoma, suspension)	0.723	9320	0.451	465	0.963	> 4000	0.918	> 1020	0.913	> 10200	0.981	> 1280
EW-16 (Ewing sarcoma, adherent)	0.639	4940	0.588	1130	0.92	> 4000	0.658	179	0.975	> 10200	0.783	564
EW-18 (Ewing sarcoma, suspension)	0.74	10300	0.439	432	0.807	2230	0.983	> 1020	0.934	> 10200	0.986	> 1280
EW-24 (Ewing sarcoma, semi-adherent)	0.965	> 32000	0.988	> 10200	0.968	> 4000	0.892	951	0.99	> 10200	0.846	768
EoL-1-cell (haematopoietic neoplasm, suspension)	0.652	5000	0.425	411	0.975	> 4000	0.63	139	0.823	5140	0.026	< 5
Farage (B-cell lymphoma, suspension)	0.706	6690	0.221	120	0.887	3070	0.702	210	0.983	> 10200	0.113	6.54
GB-1 (glioma, adherent)	0.556	2920	0.941	> 10200	0.89	> 4000	0.664		0.981	> 10200	0.348	27.9
GCIY (stomach, adherent)	0.564	3050	0.977	> 10200	0.902	> 4000	0.729	316	0.984	> 10200	0.543	107
GI-ME-N (neuroblastoma, adherent)	0.744	13200	0.556	961	0.88	> 4000	0.738	401	0.908	> 10200	0.486	72.5
NB1 (neuroblastoma, semi-adherent)	0.724	9300			0.855	3730	0.581	109	0.901	> 10200	0.967	> 1280

By IC50 is meant the dose at which the fit gives 50% viability; a limit (>, <) means that the fit lies beyond the doses tested. AUC sums up the same curve from the lowest dose to the 256-fold higher top dose; it is 1 without any effect and falls as sensitivity rises. For some of these results: A top dose marked as inferred comes from the curve model; the source does not state it.
